Data: the antibiotic and cytotoxicity screens of Wong et al. (2023)
Some of the results follow.

What follows are compounds tested on S. aureus RN4220 (assay: growth inhibition call (relative growth <= 0.2)). Conditions: 50 µM.

Growth inhibition call, inactive:
O=C(C[C@H]1CC[C@@H]2[C@H](COC[C@@H](O)CN2Cc2cccc(C(F)(F)F)c2)O1)NCCc1ccncc1
C[C@H](CO)N1C[C@H](C)[C@H](CN(C)S(=O)(=O)c2ccc(F)cc2)Oc2c(NS(C)(=O)=O)cccc2C1=O
CCn1cc(-c2ccc3ccccc3n2)c(=S)c2ccccc21
COc1ccc(NC(=O)Nc2ccc3c(c2)C(=O)N([C@@H](C)CO)C[C@H](C)[C@H](CN(C)C(=O)Nc2ccc(C(F)(F)F)cc2)O3)cc1
C[C@@H]1CN([C@@H](C)CO)C(=O)CCCn2nncc2CO[C@H]1CN(C)S(=O)(=O)c1ccc(Oc2ccccc2)nc1
C[C@@H]1CN([C@H](C)CO)C(=O)Cc2cc(NC(=O)Nc3ccc(C(F)(F)F)cc3)ccc2O[C@H]1CN(C)Cc1ccc(-c2ccccc2)cc1
Cc1noc(C)c1NC(=O)Nc1ccc2c(c1)C(=O)N([C@@H](C)CO)C[C@@H](C)[C@@H](CN(C)C(=O)Cc1ccccc1)OCCCC[C@@H](C)O2
C[C@@H]1CN([C@H](C)CO)C(=O)Cc2cc(NC(=O)CCCCCC(=O)Nc3ccccc3N)ccc2O[C@@H]1CN(C)S(=O)(=O)c1cn(C)cn1
Cc1noc(C)c1NC(=O)N(C)C[C@@H]1Oc2ccc(NS(=O)(=O)c3cccs3)cc2CC(=O)N([C@H](C)CO)C[C@H]1C
C[C@@H]1CCCCO[C@H](CN(C)C(=O)Cc2ccccc2)[C@@H](C)CN([C@@H](C)CO)C(=O)c2cc(NC(=O)NC3CCCCC3)ccc2O1
Cc1cc(C(=O)Nc2cccc3c2O[C@H](CN(C)Cc2ccccc2)[C@@H](C)CN([C@H](C)CO)C3=O)n(C)n1
C[C@@H]1CN([C@H](C)CO)C(=O)CCCn2nncc2CO[C@@H]1CN(C)C(=O)Nc1ccc(C(F)(F)F)cc1
Cc1cc(O)c(C=O)c2c1C(=O)Oc1c(C)c(O)c3c(c1O2)C(O)OC3=O (stereo not drawn)
